# Source: the supplement of paper PMC10126150
# Values marked as one replicate rest on one cluster of the flow cell; about a third of the high ones do not repeat.
# Test system: ATP
# Assay: switch fluorescence ratio, 500 uM ATP over buffer (Cy3 cluster intensity, sum of 5 cycles each) (fold (ratio)); higher = stronger signal-on switching upon ATP binding; sequences stand for … in TCGTCGGCAGCGTCAGATGTGTATAAGAGACAGTTTTTTTTTTTTTTTTTTTTTTTTT…TC
# Details: aptamer strand: ATP DNA aptamer (quencher-CACCTGGGGGAGTATTGCGGAGGAAGG + anchor), 100 nM annealed; ATP concentration: 500 uM; one replicate
# Procedure, shortened: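 Switching-strand clusters labelled with Cy3 on a modified Illumina MiSeq flow-cell were annealed to 100 nM quencher-labelled ATP aptamer, imaged in selection buffer, and re-imaged after 15 min with 500 uM ATP at 22 °C. This was done over five cycles with NaOH stripping and re-annealing in between. The fluorescence ratio is summed target-cycle over summed buffer-cycle Cy3 intensity per cluster, averaged per switch-domain sequence, excluding clusters outside 100-1000 RFU.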
# 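Also: ATP exposure 15 min at 22 °C before imaging.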
sequence,measurement,value
CGTCCAGGTT,switch fluorescence ratio,1.02
CGGTGGTGCA,switch fluorescence ratio,1.01
CGATAGGTCT,switch fluorescence ratio,1.01
GAAAAACATA,switch fluorescence ratio,0.999
TTCCCCTTA,switch fluorescence ratio,1.06
CGGCATGATT,switch fluorescence ratio,1.01
TAGTGGGATG,switch fluorescence ratio,1.01
TTGTTAACAC,switch fluorescence ratio,0.96
ACGTAAGGAA,switch fluorescence ratio,1.03
GTTTCGGGAC,switch fluorescence ratio,1.01
TACGGTGCTG,switch fluorescence ratio,0.834
CCAGTACTAT,switch fluorescence ratio,0.999
GAAGTCCTTT,switch fluorescence ratio,0.994
CGATCAGAAT,switch fluorescence ratio,0.997
GAATGGTGGT,switch fluorescence ratio,0.951
TGGCTTTTCC,switch fluorescence ratio,0.971
ACGCTGATTC,switch fluorescence ratio,1.21
CAAGCTGCGC,switch fluorescence ratio,0.944
GCTATGTGA,switch fluorescence ratio,0.975
CGGTGTTTAC,switch fluorescence ratio,1
CGTGCATGTT,switch fluorescence ratio,1.02
GATCTGATGG,switch fluorescence ratio,0.949
CACCGGTTGA,switch fluorescence ratio,1.03
GCGATTGAAT,switch fluorescence ratio,1.04
GACTGCTAAG,switch fluorescence ratio,1.15
TCCTTGGATT,switch fluorescence ratio,0.978
ATTCGCCCGG,switch fluorescence ratio,1.14
TTGGTTAATT,switch fluorescence ratio,1.03
ACGTATATGT,switch fluorescence ratio,1.16
TGGTAGTATC,switch fluorescence ratio,0.991
TTTGACAGT,switch fluorescence ratio,0.992
ATGAGGAGAA,switch fluorescence ratio,1.03
GATCGAAGAA,switch fluorescence ratio,1.22
CGTCACGTTC,switch fluorescence ratio,1.01
GTCTTAATT,switch fluorescence ratio,1.02
TGACCTAGGC,switch fluorescence ratio,0.991
AGCTGATTAT,switch fluorescence ratio,0.97
TATGGTGGTC,switch fluorescence ratio,0.978
CCAATCCGAT,switch fluorescence ratio,1.04
GGATGACGGT,switch fluorescence ratio,0.977
TTACTTCGGG,switch fluorescence ratio,1.01
AATTGTCTCG,switch fluorescence ratio,0.995
CATTTTGCTG,switch fluorescence ratio,0.971
TGACGCAGG,switch fluorescence ratio,1.05
CTGTACGGAC,switch fluorescence ratio,1.34
GGTACAGGCG,switch fluorescence ratio,1.01
AAGAATCTCC,switch fluorescence ratio,1.08
GCTTAGTATT,switch fluorescence ratio,1.02
TATAAGCTGG,switch fluorescence ratio,0.997
TATTTAGAGC,switch fluorescence ratio,0.969
TTGTGTTACT,switch fluorescence ratio,1.02
CTAGGCGGAA,switch fluorescence ratio,1.02
GTGGTTTTT,switch fluorescence ratio,0.985
GGCAGCCATG,switch fluorescence ratio,1.03
CGCCGGGTGT,switch fluorescence ratio,2.13
ATTAATCACT,switch fluorescence ratio,0.97
GAAAAGGAAG,switch fluorescence ratio,1.04
CTGTGATCGA,switch fluorescence ratio,1.01
TTGGTTGGG,switch fluorescence ratio,0.943
ACAAGAATTT,switch fluorescence ratio,0.98
CGTTCCCGGG,switch fluorescence ratio,1.12
GTAAGAAAAA,switch fluorescence ratio,0.992
TGATCGCAGT,switch fluorescence ratio,0.981
GACAGGCGTC,switch fluorescence ratio,1
ATCGTTTGGC,switch fluorescence ratio,0.954
ACGGGATCTT,switch fluorescence ratio,0.995
TTCGGAATTC,switch fluorescence ratio,1.76
GCTTCATTAA,switch fluorescence ratio,0.984
GCCAGTGGAG,switch fluorescence ratio,0.995
GATGCCTTAG,switch fluorescence ratio,0.983
CGTATCCCAA,switch fluorescence ratio,1.07
TCCCCGCC,switch fluorescence ratio,1.14
AAGTTCCGGT,switch fluorescence ratio,0.989
TGATTTCCAA,switch fluorescence ratio,0.983
TTTTGTTCGC,switch fluorescence ratio,1.02
AGCACTGGAC,switch fluorescence ratio,1.36
AATGCGGTGT,switch fluorescence ratio,1.05
GTCATCAGCT,switch fluorescence ratio,1.02
CGTTTTTATA,switch fluorescence ratio,1.02
GAACCGACTT,switch fluorescence ratio,1.11
GAGAGGGT,switch fluorescence ratio,0.961
AATTGCTTCT,switch fluorescence ratio,0.99
TAATCGCTGT,switch fluorescence ratio,1.04
TTTTTCTAA,switch fluorescence ratio,1
TGGTCGATG,switch fluorescence ratio,1.06
GGGGTCTATG,switch fluorescence ratio,0.991
TCGATCGTAG,switch fluorescence ratio,0.995
TTCTTACTCG,switch fluorescence ratio,0.992
ATTTGGAGAA,switch fluorescence ratio,1.01
TAGGATCACA,switch fluorescence ratio,0.959
GGGGAATGAG,switch fluorescence ratio,1.05
ATTGGGGTCG,switch fluorescence ratio,1.06
CCTGACTCAC,switch fluorescence ratio,2.5
TATTAGAGCC,switch fluorescence ratio,0.966
ATTTGCGTGT,switch fluorescence ratio,0.995
ATACGAGGCT,switch fluorescence ratio,1.07
CGGTGCAGGA,switch fluorescence ratio,1.09
CAGCGTAGTC,switch fluorescence ratio,1.07
TAGTGGAACA,switch fluorescence ratio,0.965
AGGACTAATT,switch fluorescence ratio,1.04
CGAAAGTGTT,switch fluorescence ratio,1.13
GTTGGCGTGT,switch fluorescence ratio,0.953
TGTCCTTGTG,switch fluorescence ratio,1.02
GCTTATTCAT,switch fluorescence ratio,1.02
GGTTCTTTGA,switch fluorescence ratio,0.98
TATGAACGGT,switch fluorescence ratio,0.949
AAATAGGCTC,switch fluorescence ratio,1.01
CGTTTTCCGT,switch fluorescence ratio,0.995
ATGACGTATG,switch fluorescence ratio,0.992
TTGATGATTA,switch fluorescence ratio,1
TCAGTTGCCA,switch fluorescence ratio,0.99
TATCTAAAGG,switch fluorescence ratio,1.06
AATGAGCATT,switch fluorescence ratio,0.983
TATTATCCAT,switch fluorescence ratio,1.04
CCCAGTTGCG,switch fluorescence ratio,1.08
ACGCTTTTCG,switch fluorescence ratio,0.985
ATCGGGCCC,switch fluorescence ratio,0.987
ACACTGCAA,switch fluorescence ratio,2.24
GCTGATCGGC,switch fluorescence ratio,0.937
AGTGAAATAG,switch fluorescence ratio,0.999
AGTCCACCCA,switch fluorescence ratio,1.09
GAGTGATAGT,switch fluorescence ratio,1.05
GCCTGGTACA,switch fluorescence ratio,1.02
GCTGCCTAGT,switch fluorescence ratio,0.978
AGAGTATGA,switch fluorescence ratio,0.983
TGTCTACCCA,switch fluorescence ratio,1.06
CAGCGTCCTA,switch fluorescence ratio,0.993
GGGTGTCTTG,switch fluorescence ratio,1.05
ATGTCTACAT,switch fluorescence ratio,1.01
GGGTTAGCCG,switch fluorescence ratio,1
TGGGGCGGCA,switch fluorescence ratio,0.975
GTAATGGTAG,switch fluorescence ratio,1.02
TCCCTGGCTA,switch fluorescence ratio,1.02
GTGGGCGGTA,switch fluorescence ratio,1.04
ACCAGCGGAC,switch fluorescence ratio,1.28
TCACTTCTGG,switch fluorescence ratio,0.984
CGCTTGCCTT,switch fluorescence ratio,1.02
CTTAACGTTT,switch fluorescence ratio,0.993
CCTGATTAGC,switch fluorescence ratio,1.01
ATTCACGGCG,switch fluorescence ratio,0.976
TTTCGTTGCA,switch fluorescence ratio,0.986
ATGCTCAGGG,switch fluorescence ratio,1.08
TCTTATGGAT,switch fluorescence ratio,1.01
GTAGGGTGGG,switch fluorescence ratio,0.988
TAGTGCCGGA,switch fluorescence ratio,1
TCTCAAAAC,switch fluorescence ratio,1.09
TAAAACCTAT,switch fluorescence ratio,1.21
AGGGCATC,switch fluorescence ratio,1
CATTTAGTGC,switch fluorescence ratio,0.849
AATTTGAGCG,switch fluorescence ratio,0.962
TCATGTTGGG,switch fluorescence ratio,1.03
TTTGTCCGCC,switch fluorescence ratio,1.17
CTAGCGCTTG,switch fluorescence ratio,1.02
GGCGCGTTCT,switch fluorescence ratio,1.03
GCGATTAACT,switch fluorescence ratio,1.05
CGGGGTGGAT,switch fluorescence ratio,0.948
TAGGACTGGC,switch fluorescence ratio,1.03
GATAGATATT,switch fluorescence ratio,1.03
ATCTGGGAAC,switch fluorescence ratio,1.01
TTGCACGC,switch fluorescence ratio,1.05
TCCATTCCTG,switch fluorescence ratio,1.03
CTAAGCCGCG,switch fluorescence ratio,0.938
CCGTTCTGTC,switch fluorescence ratio,1.3
TTGTAGTTGT,switch fluorescence ratio,1.09
GTGTTGGACA,switch fluorescence ratio,1.03
CTGCAGTCGG,switch fluorescence ratio,1.13
GCACCCGTAG,switch fluorescence ratio,1.1
GATGAGCTTC,switch fluorescence ratio,0.995
TGGAGGGCGG,switch fluorescence ratio,1.01
AGAAACGGT,switch fluorescence ratio,0.989
CTTAATATAG,switch fluorescence ratio,1.03
AGCAAAACCT,switch fluorescence ratio,2.79
TGTTCAAAGT,switch fluorescence ratio,0.956
GTCGTCGTCT,switch fluorescence ratio,0.985
TAAGGATCTG,switch fluorescence ratio,1.02
CTGGCACGTT,switch fluorescence ratio,1
ATATGGGTT,switch fluorescence ratio,0.994
ATGCCATAAG,switch fluorescence ratio,1.02
TGGAAACAGG,switch fluorescence ratio,1.1
ATTTCATTGC,switch fluorescence ratio,0.99
GTAAGTTAGT,switch fluorescence ratio,0.972
GTACTCGCGA,switch fluorescence ratio,1.18
GTCAAAACG,switch fluorescence ratio,0.976
CGCACAATTT,switch fluorescence ratio,1.06
AGCGATTCCG,switch fluorescence ratio,1.04
CGTGTTAAAA,switch fluorescence ratio,0.996
GGGTACAACT,switch fluorescence ratio,0.99
GCTCGTAATA,switch fluorescence ratio,2.77
ACATCTCGCG,switch fluorescence ratio,0.977
AACTCAACAG,switch fluorescence ratio,1.07
CGATATCCAG,switch fluorescence ratio,1.03
CCTACCATCG,switch fluorescence ratio,1.12
ATACCTTC,switch fluorescence ratio,1.55
ACGGGATCCT,switch fluorescence ratio,1.03
GGCATGGGCG,switch fluorescence ratio,1.03
GGAACAGAGC,switch fluorescence ratio,0.965
TAAGGGCGG,switch fluorescence ratio,1.01
GTAAAGCCCG,switch fluorescence ratio,0.998
TGATTCATGG,switch fluorescence ratio,0.981
GTAAATTTCT,switch fluorescence ratio,1.06
AGTACCCAT,switch fluorescence ratio,1.05
